Assay results published in PubChem BioAssay AID902 (National Center for Advancing Translational Sciences (NCATS), 2007).
Among all 130,000 compounds or so, about 1,900 (1.5%) were called active. This list was built around the results that the source calls inconclusive (neither active nor inactive); the mix of calls is not that of the screen. Calls follow the shape of the dose curve; as a rule, active = well fitted cell-killing curve with a large enough effect; inconclusive = small, poorly fitted or top-dose-only effect; inactive = no such curve, though single readings can be large or run the other way. Potencies beside an inconclusive call are fits to weak or partial responses and may not hold up.

Assay: qHTS Screen for Compounds that Selectively Target Cancer Cells with p53 Mutations: Cytotoxicity of p53ts Cells at the Nonpermissive Temperature; also: nearly all actives have a fitted effect of over 55% in size
Settings: H1299-p53A138V viability at 39C, ATP luminescence, 24 h; activity change, negative = cell killing: at 46.1 µM (top of the series)
% is scaled to controls: 0 for no effect and ±100 for the full control effect; potency is read from the fitted curve at half-maximal effect; tags tell the direction and shape of the fitted curve.

| SMILES | activity change, negative = cell killing | Potency |
| --- | --- | --- |
| O=C(CSc1nc(=O)n(Cc2ccco2)c2c1CCC2)Nc1cccc(F)c1 | inactive: -6.64% | – |
| O=[N+]([O-])c1ccccc1S(=O)(=O)NCC1CCC(CNCC2CCc3ccccc3C2)CC1 (stereo not drawn) | – | inconclusive: 12.6 µM [cytotoxic, partial curve] |
| CC(/C=C1\SC(=O)N(CC(=O)Nc2ccc(O)cc2)C1=O)=C\c1ccccc1 | – | inconclusive: 12.6 µM [cytotoxic, partial curve, poor fit] |
| O=C(Cn1cnc2ccccc2c1=O)c1ccc2c(c1)OCCO2 | – | inconclusive: 31.6 µM [cytotoxic, single point] |
| CCOc1ccc(CNC(=O)Nc2ccc3c(c2)N(C)C(=O)c2ccccc2S3)cc1 | inactive: -29.5% | – |
| CC1CCn2c(nc3cc(C(=O)NCCc4ccccc4)ccc32)C1 (stereo not drawn) | – | inconclusive: 7.94 µM [cytotoxic, partial curve] |
| Cc1cc(NC(=O)CSc2ccc(-c3nc4cc(C)c(C)cc4[nH]3)cn2)no1 | – | inconclusive: 5.01 µM [cytotoxic, partial curve] |
| Cc1ccc(-n2ncc3c(NC4CCCC4)ncnc32)cc1 | – | inconclusive: 7.08 µM [cytotoxic, full curve, poor fit] |
| c1ccc2oc(Cc3ccc(Cc4nc5ccccc5o4)cc3)nc2c1 | – | inconclusive: 35.5 µM [cytotoxic, single point] |
| CCC/C=C(\CCC)C(NP(=O)(c1ccccc1)c1ccccc1)c1ccc(C(F)(F)F)cc1 (stereo not drawn) | – | inconclusive: 25.1 µM [cytotoxic, single point] |
| O=c1oc2c(CN3CCCCC3)c(O)ccc2cc1-c1nc2ccccc2[nH]1 | inactive: -16.2% | – |
| COC(=O)Nc1nc2ccc(C(=O)c3ccccc3)cc2[nH]1 | – | inactive |
| CCOc1cccc2cc(-c3nc4ccc(C(=O)O)cc4[nH]3)c(=O)oc12 | – | active: 15.8 µM |
| O=C(Nc1ccc(Cn2nnc3ccccc32)cc1)c1ccco1 | – | inconclusive: 20 µM [cytotoxic, single point] |
| COc1ccc(NC(=O)c2oc3ccccc3c2NC(=O)c2cc3ccccc3o2)cc1 | – | inconclusive: 31.6 µM [cytotoxic, single point] |
| CC(=O)Nc1ccc2oc(-c3ccccc3Br)nc2c1 | – | inconclusive: 7.94 µM [cytotoxic, partial curve] |
| Cc1ccc(OC(=O)c2cc(-c3ccc4c(c3)OCCO4)on2)cc1C | – | inconclusive: 15.8 µM [cytotoxic, single point] |
| Cc1c2oc3c(C)ccc(C(=O)N[C@@H]4C(=O)N[C@@H](C(C)C)C(=O)N5CCC[C@@H]5C(=O)N(C)CC(=O)N(C)[C@@H](C(C)C)C(=O)O[C@H]4C)c3nc-2c(C(=O)N[C@@H]2C(=O)N[C@@H](C(C)C)C(=O)N3CCC[C@@H]3C(=O)N(C)CC(=O)N(C)[C@@H](C(C)C)C(=O)O[C@H]2C)c(N)c1=O | – | inconclusive: 0.126 µM [cytotoxic, full curve, poor fit] |
| Cc1csc(C(C#N)C(=O)c2cc3ccccc3o2)n1 (stereo not drawn) | – | active: 5.01 µM |
| Cc1ccc(C(=O)CC2(O)C(=O)N(CCc3ccccc3)c3ccc(Cl)cc32)cc1 (stereo not drawn) | – | active: 15.8 µM |
| C[N@+]1(CCC(=O)c2ccccc2)CC[C@H]2CC[C@H](C2)C1 | inactive: -5.09% [at 9.22 µM] | – |
| Cc1ccc(C(=O)N/N=C/C2=Cc3ccccc3OC2C)cc1 (stereo not drawn) | – | inconclusive: 12.6 µM [cytotoxic, single point] |
| CN(C)CCSCCO | inactive: -2.15% [at 9.22 µM] | – |

| SMILES | activity change, negative = cell killing | Potency |
| --- | --- | --- |
| Cc1oc2ncn(C)c(=O)c2c1C(=O)NC(C)c1ccccc1 (stereo not drawn) | inactive: 14.7% | – |
| CC(=O)[C@@]1(O)CC[C@H]2[C@H]3C[C@@H](C)C4=CC(=O)C=C[C@]4(C)[C@@]3(F)[C@@H](O)C[C@]21C | inactive: -7.93% [at 20.6 µM] | – |
| CCOC(=O)C1=C(CS(=O)(=O)c2ccc(C)cc2)NC(=O)NC1c1ccc(C(C)C)cc1 (stereo not drawn) | – | inconclusive: 12.6 µM [cytotoxic, single point] |
| O=C1CCC[C@@H](C(C(=O)OCc2ccccc2)C(=O)OCc2ccccc2)C1 | inactive: -0.457% [at 9.22 µM] | – |
| Cc1nc2c(-c3ccccc3)c(C)nn2c(C)c1CCC(=O)NCc1ccccc1Cl | – | inconclusive: 0.794 µM [cytotoxic, full curve] |
| COc1ccc(N2CCN(C(CNC(=O)C(=O)NCCCN(C)C)c3cccnc3)CC2)cc1 (stereo not drawn) | inactive: -0.969% | – |
| CCc1ccc2occ(CC(=O)Nc3c(C(=O)Nc4ccc(C)cc4)oc4ccccc34)c2c1 | – | active: 31.6 µM |
| COC(=O)c1c(SCC(=O)Nc2cc(C)cc(C)c2)[nH]c2ccccc2c1=O | – | active: 12.6 µM |
| Cc1nnc(SCc2ccc(Cl)cc2)c2cc3occc3n12 | – | inconclusive: 12.6 µM [cytotoxic, partial curve, poor fit] |
| CN=C1N[C@H](c2ccccc2)N(c2ccccc2)S1 | inactive: -1.04% | – |
| Cc1nc2c(sc3nc4c(cc32)COC(C)(C)C4)c(=O)n1CC(=O)NCc1ccco1 | inactive: 8.88% | – |
| COc1cccc(NC(=O)CSc2nc3n[nH]c(C)c3c(=N)n2-c2cccc(OC)c2)c1 | – | inconclusive: 15.8 µM [cytotoxic, single point] |
| COC(=O)Cn1ncc2c(C)n(Cc3ccccc3)c(C)c2c1=O | – | inconclusive: 15.8 µM [cytotoxic, single point] |
| COc1ccc(-c2csc3nc(C)n(-n4cccc4)c(=O)c23)cc1OC | inactive: -3.66% | – |
| COc1nc(N)nc(NC23CC4CC(CC(C4)C2)C3)n1 | – | inconclusive: 12.6 µM [cytotoxic, partial curve] |
| Cc1ccc(-n2ncc(C(=O)NCCCN3CCN(c4cccc(Cl)c4)CC3)c2-n2cccc2)cc1 | – | inconclusive: 15.8 µM [cytotoxic, single point] |
| COc1ccc(Cn2c(CNS(=O)(=O)c3ccc4c(c3)CCCC4)nc3cccnc32)cc1 | – | inconclusive: 1.26 µM [cytotoxic, full curve, poor fit] |
| Oc1ccccc1NCC(O)Cn1ccc2ccccc21 (stereo not drawn) | – | inconclusive: 31.6 µM [cytotoxic, single point] |
| Cc1ccc2c(c1)c1c(c(=O)n(Cc3ccccc3)c(=O)n1Cc1cccc(C(F)(F)F)c1)n2C | – | inconclusive: 12.6 µM [cytotoxic, single point] |
| O=C(Nc1cnn(C23CC4CC(CC(C4)C2)C3)c1)c1cnn2cccnc12 | – | inconclusive: 3.98 µM [cytotoxic, partial curve] |
| Cc1sc(NC(=O)c2cccs2)c(C(N)=O)c1C | – | inconclusive: 31.6 µM [cytotoxic, single point] |
| Brc1ccc(-c2cn3cccnc3n2)cc1 | – | inconclusive: 5.01 µM [cytotoxic, full curve, poor fit] |
| COc1cccc(Nc2ncc3nc(-c4cccs4)c(=O)n(CCC#N)c3n2)c1 | – | inconclusive: 20 µM [cytotoxic, single point] |

| SMILES | activity change, negative = cell killing | Potency |
| --- | --- | --- |
| CN1c2ccccc2-c2nc3ccccc3n2C1c1ccncc1 (stereo not drawn) | inactive: -21.2% | – |
| Cc1cccc(OC(=O)c2cc(-c3ccc4c(c3)OCCO4)on2)c1 | – | active: 20 µM |
| CCCn1c(SCc2nc(-c3cc(OC)ccc3OC)no2)nnc1-c1ccc(Cl)cc1 | inactive: 1.22% | – |
| CCC(C)C1C(C#N)=C(N)Oc2n[nH]c(C)c21 (stereo not drawn) | – | inconclusive: 31.6 µM [cytotoxic, single point] |
| CCN1CCN(c2csc3ccc(C)cc3c2=O)CC1 | – | inconclusive: 0.199 µM [cytotoxic, full curve, poor fit] |
| Cc1ccccc1-c1noc(-c2cc3ccccc3oc2=O)n1 | – | inconclusive: 10 µM [cytotoxic, partial curve, poor fit] |
| Cc1ccc(C(=O)Nc2ncc(Cc3ccc(SC(F)F)cc3)s2)cc1 | – | inconclusive: 28.2 µM [cytotoxic, partial curve, poor fit] |
| O=C(CCc1nnc2n(Cc3ccccc3Cl)c(=O)c3ccccc3n12)Nc1ccc(F)cc1 | – | inconclusive: 0.0501 µM [cytotoxic, partial curve] |
| CCn1c(=O)c2cc(C(=O)Nc3cc(C)on3)sc2c2ccccc21 | inactive: -2.02% | – |
| COc1ccccc1-c1noc(-c2ccccc2)n1 | – | inconclusive: 10 µM [cytotoxic, partial curve] |
| CCOC(=O)C1CCCN(C(=O)c2cccc(NC(=O)c3nsc4ccccc34)c2)C1 (stereo not drawn) | – | inconclusive: 7.94 µM [cytotoxic, partial curve] |
| Cn1c(=O)c(C(=O)Nc2ncccn2)c(O)c2ccccc21 | – | active: 12.6 µM |
| CNCCCC1c2ccccc2C=Cc2ccccc21 | – | inconclusive: 10 µM [cytotoxic, partial curve] |
| COc1ccc(-n2cc(C(=O)OCc3ccc(F)c(F)c3)c3ccccc3c2=O)cc1 | inactive: -3.4% | – |
| Cc1cc(OCC(=O)Nc2ccc(C(=O)OC3CCCCC3)cc2)cc(C)c1Cl | inactive: 11% | – |
| Cc1nnc(NC(=O)CSc2nc3c([nH]c4ccccc43)c(=O)n2-c2ccc(Cl)cc2)s1 | – | inconclusive: 25.1 µM [cytotoxic, partial curve, poor fit] |
| CC(=O)Nc1ccc2nc(-c3ccccn3)[nH]c2c1 | – | active: 6.31 µM |
| O=C(/C=C\Nc1cccc(F)c1)c1ccc2c(c1)OCO2 | – | active: 10 µM |
| Cc1cc(C)c2c(CC(=O)Nc3ccc(F)cc3)coc2c1 | inactive: -14.9% | – |
| CC(C)c1cc(C(=O)Nc2ccc3c(c2)OCO3)no1 | – | inconclusive: 10 µM [cytotoxic, partial curve] |
| Cc1ccc(-c2nc(C)c(CCNC(=O)c3ccco3)s2)cc1 | – | inconclusive: 31.6 µM [cytotoxic, partial curve, poor fit] |
| CCN(c1cccc(C)c1)S(=O)(=O)c1nnc(NC(=O)C2CCCCC2)s1 | – | inconclusive: 25.1 µM [cytotoxic, single point] |
